Results on 39 molecules are retold here after the antibiotic and cytotoxicity screens of Wong et al. (2023).

The other results are listed elsewhere or left out.

In the assay the test system is HepG2. The assay can be described thus: cytotoxicity call (relative viability < 0.9). To be noted: 10 µM.
Turning to `[O-][n+]1ccccc1[S][Zn][S]c1cccc[n+]1[O-]`, the cytotoxicity call is “active”.

With `COc1cc2c3cc1Oc1c(OC)c(OC)cc4c1[C@@H](Cc1cccc(c1)Oc1ccc(c(O)c1)C[C@@H]3N(C)CC2)N(C)CC4`, the cytotoxicity call was “inactive”. In the case of `CCC(COC(=O)c1cc(OC)c(OC)c(OC)c1)(c1ccccc1)N(C)C.O=C(O)C=CC(=O)O` (centres undefined) it was “inactive”; in that of `CC(CO)NC(=O)C1C=C2c3cccc4[nH]cc(c34)CC2N(C)C1.O=C(O)C=CC(=O)O` (centres undefined), “inactive”. The entry for `C=C(C)[C@@H]1[C@H]2OC(=O)[C@@H]1[C@]1(O)C[C@H]3O[C@]34C(=O)O[C@H]2[C@]14C` is “inactive”; for `CC(=O)NCCSS(C)(=O)=O.CN(C)c1ccc2c(-c3ccccc3C(=O)O)c3ccc(N(C)C)cc3[o+]c2c1` it is “inactive”; for `COc1ccc([C@@H](CN)C(C)C)cc1OC` it is “inactive”. In the case of `N=C(N)/N=C(\N)Nc1ccc(Cl)cc1` it was “inactive”.

Turning to `CN1[C@@H]2CNc3ccccc3[C@@H]2[C@@H]1CO`, the cytotoxicity call was “inactive”. Take `NCC(=O)Nc1ccc(Br)cc1C(=O)c1ccccc1`: the cytotoxicity call was “inactive”. In the case of `COc1ccc(OC)c(C(O)C(C)N)c1.Cl` (centres undefined) it was “active”; in that of `CC(C)C[C@@H](NC(=O)[C@H](Cc1ccccc1)NC(=O)CNC(=O)[C@@H](C)NC(=O)[C@@H](N)Cc1ccc(O)cc1)C(=O)O`, “inactive”; in that of `CCO[C@H]1[C@H]2CC[C@@H]1NC2`, “inactive”. As to `NNc1ccn([C@@H]2O[C@H](CO)[C@@H](O)[C@H]2O)c(=O)n1`, the cytotoxicity call was “inactive”. For `C[N+]1(C)C2CC(OC(=O)C(CO)c3ccccc3)CC1C1OC12.[Br-]` (centres undefined), the cytotoxicity call was “inactive”.

For `COc1cc2c(cc1OC)C1CC(=O)C(CC(C)C)CN1CC2` (centres undefined), the cytotoxicity call is “active”. In the case of `O=[N+]([O-])c1c(NCCO)ccc2nonc12` it was “inactive”; in that of `CC12CCC(=O)C=C1C=CC1C2CCC2(C)C1CCC2(O)CCC(=O)[O-].[K+]` (centres undefined), “inactive”. For the molecule `O=C(O)Cc1cccnc1C(=O)O`, the cytotoxicity call was “inactive”. The entry for `O=C1CCN(C(=O)C2CCC2)CC1` is “inactive”; for `C=CCc1cc(OC)c2c(c1OC)OCO2` it is “inactive”. In the case of `c1ccc(CN2CCNCC2)nc1` it was “inactive”. `CC1C=CC=CCCC=CC=CC=CC=CC(OC2OC(C)C(O)C(N)C2O)CC2OC(O)(CC(O)C(O)CCC(O)CC(O)CC(O)CC(=O)OC(C)C(C)C1O)CC(O)C2C(=O)O` (centres undefined): the cytotoxicity call was “inactive”. The entry for `O=C1CCCC2C3CC(CN12)C1CCCCN1C3.[O-][Cl+3]([O-])([O-])O` (centres undefined) is “inactive”; for `C=CCN1C[C@H]2CN(C(C)C)C[C@H]2C1=O` it is “inactive”.

For `O=C([O-])Cc1ccccc1.[Na+]`, the cytotoxicity call was “inactive”. In the case of `CCC(C)C(=O)OC1CC2(C)C(c3ccoc3)OC(=O)CC23OC2(C)OC34C(OC(=O)C(C)C)C3(O)C(OC(=O)C5(C)OC5C)C5(C)CC3(O)C(C)(C5CC(=O)OC)C14O2` (centres undefined) it was “inactive”. In the case of `CC(C)(CN)CNc1ccc([N+](=O)[O-])c2cccnc12` it was “active”; in that of `O=C1C=C2C(=CCO[C@@H]2O)O1`, “inactive”; in that of `O=C(CBr)N1CC([N+](=O)[O-])([N+](=O)[O-])C1`, “inactive”. The entry for `COc1cc(OC)c(OC)cc1C=O` is “active”; for `C(=N/C12CN3CN(CN(C3)C1)C2)/c1cccnc1` it is “inactive”. On to `O=C(O)C[C@@H]1CC[C@H]2NC[C@@H](O)COC[C@@H]2O1`, for which the cytotoxicity call is “inactive”. The entry for `NSC(=S)N1CCCC1` is “inactive”.

With `CC1CCC2(NC1)OC1CC3C4CC=C5CC(O)CCC5(C)C4CCC3(C)C1C2C` (centres undefined), the cytotoxicity call was “inactive”. In the case of `O=C1[O][Pt]2([NH][C@@H]3CCCC[C@H]3[NH]2)[O]C1=O` it was “inactive”; in that of `CCCNC(=O)C1=NO[C@]2(CCNC2)C1`, “inactive”; in that of `CCC1(C2OC(C3OC(O)(CO)C(C)CC3C)CC2C)CCC(C2(C)CCC3(CC(O)C(C)C(C(C)C(OC)C(C)C(=O)[O-])O3)O2)O1.[Na+]` (centres undefined), “active”. The entry for `O=S1(=O)COC2(CNC2)CN1` is “inactive”.
